Data from PubChem BioAssay (NCATS).
Several values for one entry are separate records, joined by “and”; a condition that tells them apart may be missing. Equal entries are not always repeated. This list was built around the results that the source calls inconclusive (neither active nor inactive); the mix of calls is not that of the screen. For some assays here: Potencies of inconclusive entries are doubtful fits and often do not repeat. Activity calls are given as the source filed them. Calls follow the shape of the dose curve; as a rule, active = well fitted curve in the direction sought with a large enough effect; inconclusive = small, poorly fitted or top-dose-only effect, or another doubt; inactive = no such curve, though single readings can be large; an effect the other way counts as inactive or inconclusive.

Tests used:
[1] = qHTS of pediatric cancer cell lines to identify multiple opportunities for drug repurposing: Primary screen for DAOY cells (AID 1347090); details: DAOY medulloblastoma viability, CellTiter-Glo luminescence, 48 h; activity change, negative = cytotoxic: at 46 µM (top of the series); also: nearly all actives have a fitted effect of over 55% in size
How it was run: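 Viability measured as metabolically active cells via CellTiter-Glo luminescence following 48 hours of compound exposure, 11-point dilutions in confirmatory testing. 500-1,000 cells/well plated 5 hours before dosing; controls were DMSO and 2.3 µM bortezomib.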

[2] = qHTS of pediatric cancer cell lines to identify multiple opportunities for drug repurposing: Primary screen for U-2 OS cells (AID 1347096); also: nearly all actives have a fitted effect of over 50% in size
How it was run: (§1)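 Viability after 48 h compound treatment at 37C, 500-1,000 cells/well, read as ATP luminescence with CellTiter-Glo. Primary screens used 11-point (MIPE, 0.78 nM-46 µM) or 8-point (NPC, 0.59 nM-46 µM) final concentrations; follow-up screens used 11-point dilutions.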

[3] = Quantitative High-Throughput drug screen in 47 multiple myeloma cell lines against the NCATS MIPE library collection: Karpas417_ECACC cell viability assay (AID 1918961); details: Karpas417 myeloma viability, CellTiter-Glo ATP luminescence, 48 h; series mostly up to 45.8 µM
How it was run: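 Viability readout: CellTiter-Glo luminescence following 5 min room-temperature incubation with reagent. Prior exposure: 48 h, 37C, humidified 5% CO2, 500 cells per well.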

[4] = Quantitative High-Throughput drug screen in 47 multiple myeloma cell lines against the NCATS MIPE library collection: SKMM1_PLB cell viability assay (AID 1919863); details: SKMM1 myeloma viability, CellTiter-Glo ATP, 48 h; viability: stronger effect = lower value; also: nearly all actives have a fitted effect of over 35% in size
How it was run: (§2)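 Cells were exposed to library compounds for 48 hours, after which ATP was measured by CellTiter-Glo. Signal was taken as median relative luminescence units.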

[5] = Quantitative High-Throughput drug screen in 47 multiple myeloma cell lines against the NCATS MIPE library collection: UTMC2_PLB cell viability assay (AID 1919868); details: CellTiter-Glo ATP luminescence, 48 h; series mostly up to 45.8 µM; also: nearly all actives have a fitted effect of over 55% in size
How it was run: as §2

KB-3-1 = test: Cytotoxic Profiling of Annotated Libraries Using Quantitative High-Throughput Screening (AID 1296008); details: Five cell lines viability, CellTiter-Glo ATP luminescence, 48-72 h; max response: stronger effect = lower value; also: nearly all actives have a fitted effect of over 60% in size
How it was run: (§3)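 Cells exposed to compounds for 48 or 72 hr at 37 degrees Celsius. Viability read as ATP-coupled luminescence with CellTiter-Glo after 10 min at room temperature.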

NIH3T3 = test: as above; details: Five cell lines viability, CellTiter-Glo ATP luminescence, 48-72 h; max response: stronger effect = lower value
How it was run: as §3

MCC-13 = test: qHTS assay to identify novel small-molecules to repurpose for Merkel cell carcinoma treatment (AID 1296009); details: MCC and control cell lines, CellTiter-Glo viability, 72 h; series mostly up to 46 µM; also: nearly all actives have a fitted effect of over 60% in size
How it was run: (§4)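 Dose-response viability screen; 72 hr exposure at 37 degree celsius; CellTiter-Glo added, 10 min room temperature, luminescence read; RLUs scaled between no-cell and DMSO wells.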

MKL-1 = test: as above; details: MCC and control cell lines, CellTiter-Glo viability, 72 h; activity change, negative = cytotoxicity: at 46 µM (top of the series)
How it was run: as §4

MKL-2 = test: as above; details: MCC and control cell lines, CellTiter-Glo viability, 72 h; activity change, negative = cytotoxicity: at 46 µM (top of the series)
How it was run: as §4

UISO = test: as above; details: MCC and control cell lines, CellTiter-Glo viability, 72 h; activity change, negative = cytotoxicity: at 46 µM (top of the series)
How it was run: as §4

WaGa = test: as above; details: MCC and control cell lines, CellTiter-Glo viability, 72 h; series mostly up to 46 µM
How it was run: as §4

[6] = qHTS of pediatric cancer cell lines to identify multiple opportunities for drug repurposing: Primary screen for BT-37 cells (AID 1347094)
How it was run: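 Following a 5-hour attachment period, cells at 500-1,000/well received compounds and were cultured for 48 hours. CellTiter-Glo was added and luminescence read to estimate viable, metabolically active cells.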

[7] = qHTS of pediatric cancer cell lines to identify multiple opportunities for drug repurposing: Primary screen for LAN-5 cells (AID 1347100)
How it was run: as §1

[8] = NS1 protein of Zika virus - qHTS assay to identify small molecule inhibitors in human HEK 293 cells (AID 1347053); also: nearly all actives have a fitted effect of over 55% in size
How it was run: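 In this cell-based screen, HEK 293 cultures received compound for one hour before Zika MR766 at MOI = 0.5. NS1 was quantified 24 hours later by TR-FRET, normalized to virus-free wells and infected wells.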

[9] = Quantitative High-Throughput drug screen in 47 multiple myeloma cell lines against the NCATS MIPE library collection: KHM11_PLB cell viability assay (AID 1918962); details: KHM11 myeloma cell viability, CellTiter-Glo ATP luminescence, 48 h; series mostly up to 45.8 µM; also: nearly all actives have a fitted effect of over 35% in size
How it was run: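 We plated 500 myeloma cells per well, pinned in MIPE 4.0 compounds, and incubated for 48 hours at 37C. ATP was then quantified with CellTiter-Glo, with DMSO and media-only wells defining 100% and 0%.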

[10] = Quantitative High-Throughput drug screen in 47 multiple myeloma cell lines against the NCATS MIPE library collection: OCIMY1_PLB cell viability assay (AID 1918979); also: nearly all actives have a fitted effect of over 35% in size
How it was run: as §2

[11] = Quantitative High-Throughput drug screen in 47 multiple myeloma cell lines against the NCATS MIPE library collection: KMS34_JCRB cell viability assay (AID 1918985); also: nearly all actives have a fitted effect of over 40% in size
How it was run: as §2

SKOV3 = test: Primary qHTS to identify gynecologic anti-cancer compounds using libraries of approved drugs and bioactive compounds (AID 1345084); details: Gynecologic cancer cell panel viability, ATPlite luminescence, 48 h; series mostly up to 57.5 µM; also: nearly all actives have a fitted effect of over 55% in size
How it was run: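 ATP-based viability (ATPlite), 1,000 cells/well, 16 h pre-incubation, 48 h compound at 37 C, 5% CO2, 15 min RT before read.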

HaCat = test: Cytotoxic Profiling of Annotated Libraries Using Quantitative High-Throughput Screening (AID 1296008); details: Five cell lines viability, CellTiter-Glo ATP luminescence, 48-72 h; max response: stronger effect = lower value; also: nearly all actives have a fitted effect of over 60% in size
How it was run: as §3

Measured: Potency
Potency is read from the fitted curve at half-maximal effect; tags tell the direction and shape of the fitted curve.

C=C1C(=CC=C2CCC[C@]3(C)[C@@H]([C@H](C)C=C[C@H](C)C(C)C)CC[C@@H]23)C[C@@H](O)C[C@@H]1O
active: [1] 1.87 µM | [2] 3.72 µM | [3] 0.118 µM | [4] 14.8 µM | [5] 2.09 µM | MKL-1 = 1.18 µM | MKL-2 = 0.332 µM | UISO 8.33 µM | WaGa 0.118 µM
inconclusive: NIH3T3 = 469 nM [inhibitor, full curve] | MCC-13 = 23.5 µM [inhibitor, single point]
inactive: KB-3-1

CCN(c1ccccc1)c1cc(NC)[n+](C)c(C)n1
inconclusive: [6] 24.3 µM [cytotoxic, single point] | [7] 16.6 µM [cytotoxic, partial curve, poor fit] | [4] 3.72 µM [cytotoxic, partial curve, poor fit]
inactive: [5]

N#Cc1ccc(COC[C@H]2O[C@@H](n3c(NCc4ccc(Cl)c(Cl)c4)nc4c(N)ncnc43)[C@@H](O)[C@@H]2O)cc1
inconclusive: [8] 37.2 µM [inhibitor, single point] | [1] 18.7 µM [cytotoxic, partial curve, poor fit] | [6] 19.3 µM [cytotoxic, partial curve] | [3] 1.18 µM [cytotoxic, full curve, poor fit] | [9] 18.7 µM [cytotoxic, partial curve, poor fit] | [10] 6.62 µM [cytotoxic, partial curve, poor fit] | NIH3T3 = 37200 nM [inhibitor, partial curve, poor fit] | MCC-13 = 18.7 µM [inhibitor, single point] | MKL-1 = 10.5 µM [inhibitor, partial curve] | MKL-2 = 14.8 µM [inhibitor, partial curve, poor fit] | UISO 20.9 µM [inhibitor, single point] | WaGa 14.8 µM [inhibitor, partial curve, poor fit]
active: [11] 16.6 µM

O=C(Nc1cc(C(F)(F)F)cc(C(F)(F)F)c1)c1cc(Cl)ccc1O
inconclusive: MCC-13 = 4.69 µM [inhibitor, full curve]
active: [8] 2.64 µM | [2] 4.69 µM | [7] 0.332 µM | [9] 1.48 µM | [4] 0.833 µM | [5] 0.743 µM | NIH3T3 = 3.32 µM and 5.8 µM | SKOV3 = 3.55 µM

COc1cc(C)c(Sc2cnc(NC(=O)c3ccc(CNC(C)C(C)(C)C)cc3)s2)cc1C(=O)N1CCN(C(C)=O)CC1 (stereo not drawn)
inconclusive: [8] 37.2 µM [inhibitor, single point]
active: [6] 7.69 µM | [9] 14.8 µM | [10] 14.8 µM | [4] 20.9 µM | [5] 3.32 µM | HaCat 26.4 µM | WaGa 16.6 µM

CC1(C)CNc2cc(NC(=O)c3cccnc3NCc3ccncc3)ccc21
active: [7] 20.9 µM
inconclusive: [6] 21.7 µM [cytotoxic, partial curve] | [3] 20.9 µM [rising, partial curve, poor fit] | [11] 18.7 µM [cytotoxic, partial curve, poor fit] | [4] 7.43 µM [cytotoxic, partial curve, poor fit] | [5] 1.32 µM [cytotoxic, full curve, poor fit] | UISO 20.9 µM [inhibitor, partial curve] | WaGa 26.4 µM [inhibitor, partial curve, poor fit]
inactive: [2] | [9]

CC1(C)CCC(c2ccc(Cl)cc2)=C(CN2CCN(c3ccc(C(=O)NS(=O)(=O)c4ccc(N[C@H](CCN5CCOCC5)CSc5ccccc5)c(S(=O)(=O)C(F)(F)F)c4)cc3)CC2)C1
active: [7] 0.0093 µM | [9] 6.62 µM | [11] 9.35 µM | [5] 0.0935 µM | MKL-1 = 0.418 µM | MKL-2 = 0.264 µM | WaGa 0.118 µM
inconclusive: [4] 37.2 µM [cytotoxic, single point] | HaCat 29.6 µM [inhibitor, partial curve] | KB-3-1 = 23.1 µM [inhibitor, single point] | NIH3T3 = 37.2 µM [inhibitor, partial curve, poor fit] and 20.6 µM [inhibitor, single point] | SKOV3 = 39.8 µM [cytotoxic, single point]
